The full ranking holds about 33,000 sequences; the median of “E-score (-0.5 to 0.5)” is about -0.036, and the highest 2% start at about 0.37. The list shows a part of the results.

In this assay the target is T1, Yer064c (UniProt P40041).
T1 sequence: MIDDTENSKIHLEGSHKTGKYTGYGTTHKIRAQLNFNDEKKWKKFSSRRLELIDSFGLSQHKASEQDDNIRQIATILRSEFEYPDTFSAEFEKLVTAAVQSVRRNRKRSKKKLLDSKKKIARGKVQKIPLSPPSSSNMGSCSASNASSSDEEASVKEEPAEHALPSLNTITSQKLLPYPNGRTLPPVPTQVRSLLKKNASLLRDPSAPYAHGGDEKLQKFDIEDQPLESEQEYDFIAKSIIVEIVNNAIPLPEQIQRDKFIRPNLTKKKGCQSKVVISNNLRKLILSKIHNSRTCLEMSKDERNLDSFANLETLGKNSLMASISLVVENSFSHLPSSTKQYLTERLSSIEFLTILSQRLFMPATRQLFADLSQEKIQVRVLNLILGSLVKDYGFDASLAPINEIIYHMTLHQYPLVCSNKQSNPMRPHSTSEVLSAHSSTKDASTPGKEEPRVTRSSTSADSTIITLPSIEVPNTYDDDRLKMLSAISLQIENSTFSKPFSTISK
As to the kind of experiment: PBM E-score (8-mer binding enrichment) (E-score (-0.5 to 0.5)); higher = stronger / more preferred TF binding; most listed sequences are background and not binding sites. Particulars: protein concentration: 200 nM; construct: GST-full length. The essentials: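 Yeast transcription factors carrying a GST tag, as full-length proteins or DNA-binding domains, were produced by PURExpress in vitro transcription/translation. About 100-200 nM protein was applied to universal all-10-mer Agilent arrays, double-stranded by primer extension on fresh or once-stripped slides. Bound protein was detected with fluorescent anti-GST, and scans were normalised with masliner. The Universal PBM Analysis Suite gave each ungapped eight-base word, pooled with its reverse complement, an E-score, a modified Wilcoxon-Mann-Whitney statistic.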
Take CCCCATGA: the “PBM E-score” value was 0.0369.
As for CCATCAAG, the figure is 0.00671; as for ACCATCCA, -0.051.
As for CACGTATA, the figure is 0.104; as for CGTCCGGA, -0.0836; as for ACGTCTAT, 0.0252.
As for CCTGGGCA, the figure is -0.0533.
On to ATTAAGCG, for which the “PBM E-score” value turned out to be 0.146.
In the case of TAACCTCA, the “PBM E-score” value was -0.00381.
With CATCGGAC the figure was -0.0466.
As for AGCTATGA, the figure is 0.255.
As for AAATCTGA, the “PBM E-score” value amounted to 0.00848.
As for GCGGTGAA, the figure is -0.174.
For the sequence GGCAAACC, the “PBM E-score” value is -0.274.
As to AGCGTTCA, the “PBM E-score” value was -0.194.
With CATACCTC the figure was 0.0495.
For ACTCATCC, the “PBM E-score” value stood at 0.455.
As for AAACAGCC, the figure is -0.213; as for GCTACGAA, -0.0422; as for ATGATTGG, 0.286.
With ACCTCTCT the figure was -0.246; with ATCAGGCA, 0.147; with GCATGTAA, -0.267.
With AGCCTGAC the figure was 0.0969; with AAAGTGAT, 0.177; with CAATCTGG, -0.19.
Turning to CACATTAA, the “PBM E-score” value is 0.148.
For TAGATCAA, the “PBM E-score” value worked out at 0.0854.
As for GATACCCA, the figure is 0.137; as for AACGCTCC, -0.161; as for GACCCACC, -0.00254.
On to ACTAAAGC, for which the “PBM E-score” value worked out at 0.264.
With GCACGATA the figure was 0.0271; with AAAGCGTA, -0.235; with AATTTCGT, -0.0756.
Regarding AGATAAAA, the “PBM E-score” value is 0.0997.
As for AGGAACTC, the figure is 0.0535; as for GACACATA, 0.0972; as for AGTAACGA, 0.0276.
With AAGGTAGT, the “PBM E-score” value stood at 0.124.
In the case of AACGCAGC, the “PBM E-score” value was -0.23.
AAGCGACA: the “PBM E-score” value was -0.208.
As for CGCTTGAG, the figure is -0.00393.
As for AGGTCCAT, the figure is -0.148; as for CACTCACA, 0.0403; as for TCGCTAAA, 0.0799.
In the case of ACTGTTCA, the “PBM E-score” value was -0.0258.
As for CGATATCA, the figure is -0.102.
AATCGCCG: the “PBM E-score” value turned out to be 0.07.
As for GCCGGTGA, the figure is 0.146.
As for CACCGTCC, the “PBM E-score” value is -0.0361.
As for CCGACACA, the figure is 0.0878.
With AGGCCGCA the figure was -0.226; with ATTATATA, 0.244; with CGAGTTAG, 0.0758.
Regarding GACAGGGA, the “PBM E-score” value is -0.114.
With AAAGCGTT the figure was -0.0894.
For the sequence CCCGTAGG, the “PBM E-score” value is -0.0914.
In the case of CTACACAA, the “PBM E-score” value was found to be 0.111.
With GGCACCCA the figure was -0.133; with CCTCCATA, -0.0747; with ATAGCCGG, 0.0779.
As for CCTAACTA, the figure is -0.0731; as for CGCTCCCA, -0.186; as for ACATTCTG, -0.0411.
Consider CAAGAGTC, for which the “PBM E-score” value came to 0.434.
GTTTGTAA: the “PBM E-score” value was -0.0586.
Consider CCCAGATC, for which the “PBM E-score” value was -0.306.
With CACTGGGG the figure was -0.176; with CAGACAAA, 0.0225; with ATGGAAAC, -0.134.
With GCATAACC the figure was -0.275; with ATACCCGG, -0.227; with CCTGCAGA, -0.0767.
For GCGTCGTA, the “PBM E-score” value was -0.0627.
On to CACAATGC, for which the “PBM E-score” value was -0.0751.
For the sequence AACCGCCC, the “PBM E-score” value was -0.161.
With ATGAATCG, the “PBM E-score” value is 0.355.
GAAAGCAC: the “PBM E-score” value was -0.138.
As for GATTACGA, the figure is 0.268; as for AGCGGGAC, -0.121.
As for ACACTTAG, the “PBM E-score” value is -0.0508.
For the sequence GCAGTGGA, the “PBM E-score” value is 0.0519.
As for GACTGCCC, the figure is 0.189; as for GATGGAGC, -0.232; as for AAGGCTAA, 0.221.

The values above are taken from the supplement of paper PMC3334620.
